According to PMC8775565:
Results are given in words; binding and its absence hold for the method and conditions named. Some results given as binding are weak or reduced against the parent protein; the word gives no strength.

The chains behind the UniProt entries cited, without tags or fusion partners.
UniProt P49841: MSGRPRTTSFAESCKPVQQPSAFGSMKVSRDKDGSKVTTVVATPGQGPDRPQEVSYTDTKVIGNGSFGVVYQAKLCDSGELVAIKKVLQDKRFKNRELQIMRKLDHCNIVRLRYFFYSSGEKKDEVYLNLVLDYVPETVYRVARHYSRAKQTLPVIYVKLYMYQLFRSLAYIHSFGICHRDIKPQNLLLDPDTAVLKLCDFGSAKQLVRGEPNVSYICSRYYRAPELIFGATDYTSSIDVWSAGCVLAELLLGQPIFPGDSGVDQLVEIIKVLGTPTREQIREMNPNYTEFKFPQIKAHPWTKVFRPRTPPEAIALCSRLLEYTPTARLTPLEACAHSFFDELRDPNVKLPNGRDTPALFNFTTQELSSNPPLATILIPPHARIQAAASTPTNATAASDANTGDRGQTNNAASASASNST

B1: glycogen synthase kinase interaction protein (GSKIP), wild type, full length (protein, UniProt Q9P0R6 1-139)
chain: METDCNPMELSSMSGFEEGSELNGFEGTDMKDMRLEAEAVVNDVLFAVNNMFVSKSLRCADDVAYINVETKERNRYCLELTEAGLKVVGYAFDQVDDHLQTPYHETVYSLLDTLSPAYREAFGNALLQRLEALKRDGQS
B2: GSKIP L130I (full length) (protein, UniProt Q9P0R6 1-139)
chain: METDCNPMELSSMSGFEEGSELNGFEGTDMKDMRLEAEAVVNDVLFAVNNMFVSKSLRCADDVAYINVETKERNRYCLELTEAGLKVVGYAFDQVDDHLQTPYHETVYSLLDTLSPAYREAFGNALLQRIEALKRDGQS
B3: GSKIP L130V (full length) (protein, UniProt Q9P0R6 1-139)
chain: METDCNPMELSSMSGFEEGSELNGFEGTDMKDMRLEAEAVVNDVLFAVNNMFVSKSLRCADDVAYINVETKERNRYCLELTEAGLKVVGYAFDQVDDHLQTPYHETVYSLLDTLSPAYREAFGNALLQRVEALKRDGQS
B4: GSKIP Y118A (full length) (protein, UniProt Q9P0R6 1-139)
chain: METDCNPMELSSMSGFEEGSELNGFEGTDMKDMRLEAEAVVNDVLFAVNNMFVSKSLRCADDVAYINVETKERNRYCLELTEAGLKVVGYAFDQVDDHLQTPYHETVYSLLDTLSPAAREAFGNALLQRLEALKRDGQS
B5: GSKIP Y118F (full length) (protein, UniProt Q9P0R6 1-139)
chain: METDCNPMELSSMSGFEEGSELNGFEGTDMKDMRLEAEAVVNDVLFAVNNMFVSKSLRCADDVAYINVETKERNRYCLELTEAGLKVVGYAFDQVDDHLQTPYHETVYSLLDTLSPAFREAFGNALLQRLEALKRDGQS
B6: GSKIP F122A (full length) (protein, UniProt Q9P0R6 1-139)
chain: METDCNPMELSSMSGFEEGSELNGFEGTDMKDMRLEAEAVVNDVLFAVNNMFVSKSLRCADDVAYINVETKERNRYCLELTEAGLKVVGYAFDQVDDHLQTPYHETVYSLLDTLSPAYREAAGNALLQRLEALKRDGQS
B7: GSKIP F122Y (full length) (protein, UniProt Q9P0R6 1-139)
chain: METDCNPMELSSMSGFEEGSELNGFEGTDMKDMRLEAEAVVNDVLFAVNNMFVSKSLRCADDVAYINVETKERNRYCLELTEAGLKVVGYAFDQVDDHLQTPYHETVYSLLDTLSPAYREAYGNALLQRLEALKRDGQS
B8: GSKIP L126A (full length) (protein, UniProt Q9P0R6 1-139)
chain: METDCNPMELSSMSGFEEGSELNGFEGTDMKDMRLEAEAVVNDVLFAVNNMFVSKSLRCADDVAYINVETKERNRYCLELTEAGLKVVGYAFDQVDDHLQTPYHETVYSLLDTLSPAYREAFGNAALQRLEALKRDGQS
B9: GSKIP L126V (full length) (protein, UniProt Q9P0R6 1-139)
chain: METDCNPMELSSMSGFEEGSELNGFEGTDMKDMRLEAEAVVNDVLFAVNNMFVSKSLRCADDVAYINVETKERNRYCLELTEAGLKVVGYAFDQVDDHLQTPYHETVYSLLDTLSPAYREAFGNAVLQRLEALKRDGQS
B10: GSKIP L126Q (full length) (protein, UniProt Q9P0R6 1-139)
chain: METDCNPMELSSMSGFEEGSELNGFEGTDMKDMRLEAEAVVNDVLFAVNNMFVSKSLRCADDVAYINVETKERNRYCLELTEAGLKVVGYAFDQVDDHLQTPYHETVYSLLDTLSPAYREAFGNAQLQRLEALKRDGQS
B11: GSKIP L130A (full length) (protein, UniProt Q9P0R6 1-139)
chain: METDCNPMELSSMSGFEEGSELNGFEGTDMKDMRLEAEAVVNDVLFAVNNMFVSKSLRCADDVAYINVETKERNRYCLELTEAGLKVVGYAFDQVDDHLQTPYHETVYSLLDTLSPAYREAFGNALLQRAEALKRDGQS
B12: GSKIP Y118P (full length) (protein, UniProt Q9P0R6 1-139)
chain: METDCNPMELSSMSGFEEGSELNGFEGTDMKDMRLEAEAVVNDVLFAVNNMFVSKSLRCADDVAYINVETKERNRYCLELTEAGLKVVGYAFDQVDDHLQTPYHETVYSLLDTLSPAPREAFGNALLQRLEALKRDGQS
B13: GSKIP F122P (full length) (protein, UniProt Q9P0R6 1-139)
chain: METDCNPMELSSMSGFEEGSELNGFEGTDMKDMRLEAEAVVNDVLFAVNNMFVSKSLRCADDVAYINVETKERNRYCLELTEAGLKVVGYAFDQVDDHLQTPYHETVYSLLDTLSPAYREAPGNALLQRLEALKRDGQS
B14: GSKIP L126P (full length) (protein, UniProt Q9P0R6 1-139)
chain: METDCNPMELSSMSGFEEGSELNGFEGTDMKDMRLEAEAVVNDVLFAVNNMFVSKSLRCADDVAYINVETKERNRYCLELTEAGLKVVGYAFDQVDDHLQTPYHETVYSLLDTLSPAYREAFGNAPLQRLEALKRDGQS
B15: GSKIP L130P (full length) (protein, UniProt Q9P0R6 1-139)
chain: METDCNPMELSSMSGFEEGSELNGFEGTDMKDMRLEAEAVVNDVLFAVNNMFVSKSLRCADDVAYINVETKERNRYCLELTEAGLKVVGYAFDQVDDHLQTPYHETVYSLLDTLSPAYREAFGNALLQRPEALKRDGQS

Target: glycogen synthase kinase-3β (GSK3β) (UniProt P49841)
Assay: two-hybrid; … Two-Hybrid System 2 (Gal4), YRG-2 yeast; pAS2-1-GSK3β bait and pACT2 prey cotransfected; G2 plates deficient in tryptophan and leucine, G3 plates deficient in histidine; blue colour in the colony filter lift (β-galactosidase) assay on G3 plates = positive interaction; semiquantitative grades

Binder	binding
B1	binds
B2	binds
B3	binds
SPAYREAFGNALLQRLEALKRDGQS (peptide, UniProt Q9P0R6 115-139) [GSKIPtide (115–139), wild type]	binds
B4	binds
B5	binds
B6	binds
B7	binds
B8	binds
B9	binds
B10	binds
B11	binds
B12	no binding
SPAYREAYGNALLQRLEALKRDGQS (peptide, UniProt Q9P0R6 115-139) [GSKIPtide (115–139) F122Y]	no binding
SPAYREAFGNAPLQRLEALKRDGQS (peptide, UniProt Q9P0R6 115-139) [GSKIPtide (115–139) L126P]	no binding
SPAYREAFGNAALQRLEALKRDGQS (peptide, UniProt Q9P0R6 115-139) [GSKIPtide (115–139) L126A]	no binding
SPAYREAFGNAVLQRLEALKRDGQS (peptide, UniProt Q9P0R6 115-139) [GSKIPtide (115–139) L126V]	no binding
SPAYREAFGNAQLQRLEALKRDGQS (peptide, UniProt Q9P0R6 115-139) [GSKIPtide (115–139) L126Q]	no binding
SPAYREAFGNALLQRPEALKRDGQS (peptide, UniProt Q9P0R6 115-139) [GSKIPtide (115–139) L130P]	no binding
SPAYREAFGNALLQRAEALKRDGQS (peptide, UniProt Q9P0R6 115-139) [GSKIPtide (115–139) L130A]	no binding
SPAYREAFGNALLQRIEALKRDGQS (peptide, UniProt Q9P0R6 115-139) [GSKIPtide (115–139) L130I]	no binding
SPAYREAFGNALLQRVEALKRDGQS (peptide, UniProt Q9P0R6 115-139) [GSKIPtide (115–139) L130V]	no binding
B13	no binding
B14	no binding
B15	no binding
SPAPREAFGNALLQRLEALKRDGQS (peptide, UniProt Q9P0R6 115-139) [GSKIPtide (115–139) Y118P]	no binding
SPAAREAFGNALLQRLEALKRDGQS (peptide, UniProt Q9P0R6 115-139) [GSKIPtide (115–139) Y118A]	no binding
SPAFREAFGNALLQRLEALKRDGQS (peptide, UniProt Q9P0R6 115-139) [GSKIPtide (115–139) Y118F]	no binding
SPAYREAPGNALLQRLEALKRDGQS (peptide, UniProt Q9P0R6 115-139) [GSKIPtide (115–139) F122P]	no binding
SPAYREAAGNALLQRLEALKRDGQS (peptide, UniProt Q9P0R6 115-139) [GSKIPtide (115–139) F122A]	no binding
